PubChem BioAssay AID504333 (National Center for Advancing Translational Sciences (NCATS), 2011)
Out of some 360,000 compounds screened, about 16,000 (4.4%) were called active. The inconclusive results got no clear call from the source; some entries with a clear call stand among them for comparison. Calls follow the shape of the dose curve; as a rule, active = well fitted inhibition curve with a large enough effect; inconclusive = small, poorly fitted or top-dose-only effect; inactive = no such curve, though single readings can be large or run the other way. A potency beside an inconclusive call is a rough fit, not a confirmed value.
Also: nearly all actives have a fitted effect of over 60% in size.
Potency is read from the fitted curve at half-maximal effect; tags tell the direction and shape of the fitted curve.

The compounds below were run against Bromodomain adjacent to zinc finger domain protein 2B (Homo sapiens) (UniProt Q9UIF8) (assay: qHTS Assay for Inhibitors of BAZ2B). Conditions: AlphaScreen BAZ2B-H3K14Ac peptide displacement; series mostly up to 114 µM.
UniProt Q9UIF8, sequence (Q9UIF8 whole entry, looked up, the tested form may be a part): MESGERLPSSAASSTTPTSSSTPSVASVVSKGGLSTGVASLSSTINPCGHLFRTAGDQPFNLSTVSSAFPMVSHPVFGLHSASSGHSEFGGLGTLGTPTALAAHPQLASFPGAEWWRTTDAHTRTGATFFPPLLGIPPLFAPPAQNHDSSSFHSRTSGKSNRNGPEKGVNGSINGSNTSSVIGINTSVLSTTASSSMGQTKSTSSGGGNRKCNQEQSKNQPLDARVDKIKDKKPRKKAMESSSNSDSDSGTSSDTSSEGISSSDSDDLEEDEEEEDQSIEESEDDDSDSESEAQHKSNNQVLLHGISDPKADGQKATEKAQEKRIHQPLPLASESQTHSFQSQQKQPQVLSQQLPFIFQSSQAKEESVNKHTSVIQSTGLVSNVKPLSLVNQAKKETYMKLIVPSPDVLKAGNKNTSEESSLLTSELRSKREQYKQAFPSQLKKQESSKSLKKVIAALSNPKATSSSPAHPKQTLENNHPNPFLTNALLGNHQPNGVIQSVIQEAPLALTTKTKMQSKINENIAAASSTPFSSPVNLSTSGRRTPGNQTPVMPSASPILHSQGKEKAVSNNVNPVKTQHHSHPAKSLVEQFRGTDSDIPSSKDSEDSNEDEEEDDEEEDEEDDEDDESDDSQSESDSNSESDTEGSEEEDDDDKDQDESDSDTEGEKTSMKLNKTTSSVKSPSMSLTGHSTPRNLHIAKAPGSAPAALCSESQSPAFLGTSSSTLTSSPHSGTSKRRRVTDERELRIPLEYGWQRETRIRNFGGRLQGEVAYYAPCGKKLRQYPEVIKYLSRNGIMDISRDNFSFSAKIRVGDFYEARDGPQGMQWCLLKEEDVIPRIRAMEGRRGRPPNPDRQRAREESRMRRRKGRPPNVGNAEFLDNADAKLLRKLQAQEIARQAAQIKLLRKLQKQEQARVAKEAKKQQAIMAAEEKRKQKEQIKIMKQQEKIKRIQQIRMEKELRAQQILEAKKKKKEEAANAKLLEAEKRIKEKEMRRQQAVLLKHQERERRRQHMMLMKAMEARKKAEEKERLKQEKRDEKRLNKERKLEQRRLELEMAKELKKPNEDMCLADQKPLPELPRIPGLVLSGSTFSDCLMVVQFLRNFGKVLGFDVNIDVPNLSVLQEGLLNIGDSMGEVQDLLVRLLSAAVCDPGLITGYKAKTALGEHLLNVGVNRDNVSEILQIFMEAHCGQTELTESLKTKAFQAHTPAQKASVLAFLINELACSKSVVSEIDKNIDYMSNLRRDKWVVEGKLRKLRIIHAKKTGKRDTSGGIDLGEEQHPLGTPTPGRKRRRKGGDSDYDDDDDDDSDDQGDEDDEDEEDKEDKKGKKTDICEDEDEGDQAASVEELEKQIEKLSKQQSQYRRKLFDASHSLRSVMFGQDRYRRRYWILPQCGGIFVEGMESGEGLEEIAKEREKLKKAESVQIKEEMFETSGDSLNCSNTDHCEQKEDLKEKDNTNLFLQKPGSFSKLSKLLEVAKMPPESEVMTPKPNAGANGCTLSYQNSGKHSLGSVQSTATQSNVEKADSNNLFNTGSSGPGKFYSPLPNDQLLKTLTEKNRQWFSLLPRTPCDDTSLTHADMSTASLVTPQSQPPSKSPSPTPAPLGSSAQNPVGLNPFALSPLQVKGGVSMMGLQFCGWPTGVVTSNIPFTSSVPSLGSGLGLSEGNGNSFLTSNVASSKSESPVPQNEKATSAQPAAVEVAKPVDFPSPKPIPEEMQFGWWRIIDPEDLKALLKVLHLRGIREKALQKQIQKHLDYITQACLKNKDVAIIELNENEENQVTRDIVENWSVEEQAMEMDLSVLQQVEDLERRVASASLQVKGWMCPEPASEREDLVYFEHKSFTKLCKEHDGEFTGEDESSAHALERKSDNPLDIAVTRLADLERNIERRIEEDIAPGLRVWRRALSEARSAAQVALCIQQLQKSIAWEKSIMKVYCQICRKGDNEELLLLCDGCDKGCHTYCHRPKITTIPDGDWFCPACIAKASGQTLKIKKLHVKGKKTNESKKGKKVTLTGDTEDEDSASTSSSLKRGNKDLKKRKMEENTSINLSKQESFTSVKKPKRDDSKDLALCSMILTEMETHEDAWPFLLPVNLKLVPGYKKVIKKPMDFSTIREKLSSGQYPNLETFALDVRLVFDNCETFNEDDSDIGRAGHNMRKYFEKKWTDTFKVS
Procedure, shortened: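 AlphaScreen luminescence quantifies BAZ2B engagement of H3K14Ac peptide; the protein and biotinylated peptide are both at 50 nM final, buffer PBS pH 7.4 with 0.01% Tween-20, all steps at room temperature.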
For C=CCn1cccc(C(=O)Nc2ccc(F)cc2)c1=O, the Potency was “inactive”.
With CCOC(=O)c1[nH]c(C)c(CCC(=O)N2CCN(c3cc(C)ccc3C)CC2)c1C the Potency was inconclusive: 50.1 µM [inhibitor, partial curve].
With CC(=O)Nc1ccc2nc(NC(=O)COc3ccccc3)sc2c1 the Potency was inconclusive: 79.4 µM [inhibitor, single point].
CCCn1cnc2cc(NCc3ccc(Br)cc3)ccc21 was tested, and the Potency was active: 44.7 µM.
In the case of COc1cc(Nc2ccc(C(=O)O)cc2[N+](=O)[O-])cc(OC)c1, the Potency is reported as inconclusive: 50.1 µM [inhibitor, partial curve].
Cc1cc2c(cc(C(=O)NCCCN3CCOCC3)n2Cc2ccc(Cl)cc2)o1 was tested, and the Potency was inconclusive: 44.7 µM [inhibitor, partial curve].
In the case of CCN(CC)c1ccc(N=Nc2nn(C)c(C)c2[N+](=O)[O-])cc1, the Potency is reported as active: 10 µM.
In the case of CCCCC(=O)NC(=S)Nc1nnn(CCC)n1, the Potency is reported as active: 70.8 µM.
In the case of COc1ccc(C(=O)NC(=S)NCC2CCCO2)cc1 (centres undefined), the Potency is reported as “inactive”.
CC(=O)c1cccc(N=Nc2c(-c3ccccc3)[nH]n(-c3ccccc3)c2=O)c1 was tested, and the Potency was active: 5.01 µM.
For CNC(=S)Nc1ccc(C23CC4CC(CC(C4)C2)C3)cc1, the Potency was inconclusive: 89.1 µM [inhibitor, single point].
COc1ccc(C(=O)c2c[nH]c(C(=O)NCCCn3ccnc3)c2)cc1 was tested, and the Potency was inconclusive: 79.4 µM [inhibitor, single point].
For O=C(O)COc1ccc(C(NC(=O)c2c(F)cccc2F)NC(=O)c2c(F)cccc2F)cc1, the Potency was inconclusive: 89.1 µM [inhibitor, single point].
With O=C(Nc1ccc(-c2csc(-c3ccccc3)n2)cc1)c1ccccc1Cl the Potency was “inactive”.
In the case of Cn1c(SCC(=O)c2ccc(O)c(O)c2)nnc1-c1cccs1, the Potency is reported as active: 50.1 µM.
CCOc1ccccc1C1CC(=O)Nc2cc3c(cc21)OCO3 (centres undefined) was tested, and the Potency was inconclusive: 70.8 µM [inhibitor, single point].
COc1ccc(OC)c(CCNC(=O)CCCn2c(=O)c3cccn3c3cccnc32)c1 was tested, and the Potency was inconclusive: 70.8 µM [inhibitor, partial curve].
For COc1ccc(OC)c(CN2CCSCC2)c1, the Potency was inconclusive: 50.1 µM [inhibitor, partial curve].
With CCOc1ccc(NC(=S)N(Cc2ccc(N(C)C)cc2)Cc2ccco2)cc1 the Potency was active: 35.5 µM.
For COc1cc2nc(=S)n(CCCN3CCOCC3)c(N)c2cc1OC, the Potency was “inactive”.
COc1ccc(/C=C/C(=O)NCC(=O)N=Nc2c(O)[nH]c3ccc([N+](=O)[O-])cc23)cc1 was tested, and the Potency was active: 79.4 µM.
C/C(=N\Nc1nncc2ccccc12)c1ccc(C(C)(C)C)cc1 was tested, and the Potency was active: 56.2 µM.
With COc1cccc(C(=O)NC2CC(C)(C)Cc3c2cnn3-c2cccc(F)c2)c1OC (centres undefined) the Potency was inconclusive: 89.1 µM [inhibitor, single point].
With COc1cc(NS(=O)(=O)c2ccc(NC(=S)NC(=O)c3ccco3)cc2)ncn1 the Potency was “inactive”.
CS(=O)(=O)N1CCN(Cc2ccc(C(F)(F)F)cc2)CC1 was tested, and the Potency was inconclusive: 50.1 µM [inhibitor, single point].
For C=CCNc1nc(C(=O)OCC(=O)Nc2c(Cl)cccc2C(F)(F)F)cs1, the Potency was inconclusive: 89.1 µM [inhibitor, single point].
COc1ccc(-n2nc3c(=O)[nH][nH]c3cc2=O)cc1 was tested, and the Potency was active: 31.6 µM.
CCCCNC(=O)c1onc(CSc2ccccc2)c1C(=O)O was tested, and the Potency was inconclusive: 89.1 µM [inhibitor, single point].
In the case of O=C(O)CC1=C(Nc2ccccc2)C(=O)N(c2ccccc2)C1c1ccc(F)cc1 (centres undefined), the Potency is reported as “inactive”.
For COc1ccc2oc(=O)c(-c3cn4ccc(C)cc4n3)cc2c1, the Potency was inconclusive: 50.1 µM [inhibitor, partial curve, poor fit].
With N#CC(C#N)=NNc1ccc(S(=O)(=O)N2CCCCC2)cc1 the Potency was inconclusive: 35.5 µM [inhibitor, partial curve].
With COc1cc(OC)c(NC(=O)Cn2cccc2)cc1Cl the Potency was inconclusive: 44.7 µM [inhibitor, partial curve].
For COc1ccc(C2C(C(C)=O)=C(O)C(=O)N2c2ccc(C)cc2)cc1 (centres undefined), the Potency was inconclusive: 89.1 µM [inhibitor, single point].
In the case of O=C(/C(=N\Nc1ccc(Br)cc1)Sc1nnnn1-c1ccccc1)c1ccccc1, the Potency is reported as inconclusive: 35.5 µM [inhibitor, full curve, poor fit].
COc1cc(CNC2CCCCCCC2)cc(Cl)c1OCC(N)=O was tested, and the Potency was inconclusive: 89.1 µM [inhibitor, single point].
In the case of NC(=O)c1c(NC(=O)CCCn2cnc([N+](=O)[O-])n2)sc2c1CCCC2, the Potency is reported as inconclusive: 56.2 µM [inhibitor, partial curve].
In the case of O=C(CSc1nc(-c2cccs2)cc(C(F)(F)F)n1)Nc1cc(OCC(F)(F)C(F)F)cc([N+](=O)[O-])c1, the Potency is reported as “inactive”.
CC1CC(C)CN(CCOc2cccc(Cl)c2Cl)C1 (centres undefined) was tested, and the Potency was inconclusive: 89.1 µM [inhibitor, single point].
For C/C(=N\Nc1nc(N2CCCCCC2)nc(N2CCCCCC2)n1)c1ccccc1, the Potency was inconclusive: 70.8 µM [inhibitor, single point].
With CC(=O)C1C(c2ccc(OC(F)F)cc2)NC(=O)NC1(O)C(F)(F)F (centres undefined) the Potency was inconclusive: 89.1 µM [inhibitor, single point].
Oc1ccccc1-c1nc2cnccn2c1Nc1ccc(Cl)cc1 was tested, and the Potency was inconclusive: 28.2 µM [inhibitor, full curve, poor fit].
For Cc1ccc(F)c(C2C3C=CCC(c4cccc(-c5ccc(N(C)C)cc5)c4)C3C(=O)N2Cc2ccccc2)c1 (centres undefined), the Potency was inconclusive: 2.82 µM [inhibitor, full curve, poor fit].
CCN(CC)c1ccc(/C=N/N2C(C)CCCC2C)c(O)c1 (centres undefined) was tested, and the Potency was active: 44.7 µM.
With Cc1c(CN(C)C)c2c(n1C)C(=O)c1ccc(Br)cc1-2 the Potency was inconclusive: 50.1 µM [inhibitor, partial curve].
In the case of Nc1nc(Nc2ccccc2)sc1C(=O)c1ccccc1, the Potency is reported as active: 39.8 µM.
In the case of c1ccc(CN2CCC(Nc3nc(-c4cccs4)nc4ccccc34)CC2)cc1, the Potency is reported as inconclusive: 50.1 µM [inhibitor, partial curve].
For CC(=O)c1c(C)[nH]c(C(=O)CN2C(=O)NC(C)(c3ccc(C)cc3)C2=O)c1C (centres undefined), the Potency was inconclusive: 70.8 µM [inhibitor, single point].
In the case of CN(C)c1ccc(NC(=O)C2C3C=CC(C3)C2C(=O)O)cc1 (centres undefined), the Potency is reported as active: 35.5 µM.
With O=C1NC(=Nc2cccnc2)S/C1=C/c1ccc(F)cc1 the Potency was “inactive”.
With Cc1ccccc1Oc1nc2c(C)cccn2c(=O)c1/C=C(\C#N)C(=O)Nc1c(C)n(C)n(-c2ccccc2)c1=O the Potency was inconclusive: 70.8 µM [inhibitor, single point].
With COC(=O)Cc1[nH]n(-c2nc3ccccc3s2)c(=O)c1C(C)=Nc1ccc(C)cc1 the Potency was active: 39.8 µM.
With O=C1NN(c2ccccc2)C(=O)/C1=C/c1ccc(-c2ccc(Cl)c(C(=O)O)c2)o1 the Potency was active: 50.1 µM.
For Cc1[nH]n(-c2ccccc2)c(=S)c1C=NCCCN=Cc1c(C)[nH]n(-c2ccccc2)c1=S, the Potency was inconclusive: 70.8 µM [inhibitor, single point].
With Cc1cccc(N2CCN(C(=O)Cn3c(C)c4cnn(-c5ccccc5)c(=O)c4c3C)CC2)c1C the Potency was inconclusive: 35.5 µM [inhibitor, partial curve].
O=C(N=Nc1c(O)[nH]c2ccccc12)c1cccc(S(=O)(=O)Nc2ccccc2Cl)c1 was tested, and the Potency was inconclusive: 79.4 µM [inhibitor, single point].
With c1ccc(-c2ccc3c(c2)c2c4n3CCN=C4CCC2)cc1 the Potency was inconclusive: 79.4 µM [inhibitor, single point].
In the case of COc1ccc(-c2nc3c(n2O)CCc2c-3no[n+]2[O-])cc1, the Potency is reported as “inactive”.
With O=c1cc(O)c2ccc(O)cc2o1 the Potency was “inactive”.
With O=C(CSc1ccc2ccccc2n1)N1CCC(c2noc3ccc(F)cc23)CC1 the Potency was “inactive”.
For Cn1c(C(=O)N2CCCC(C(=O)O)C2)cc2sccc21 (centres undefined), the Potency was inconclusive: 7.08 µM [inhibitor, single point].
In the case of CC1=NN(c2ccccc2)C(=O)C1C(=O)c1cc([N+](=O)[O-])cc([N+](=O)[O-])c1 (centres undefined), the Potency is reported as inconclusive: 56.2 µM [inhibitor, partial curve, poor fit].
For CCOC(=O)c1ccc(Nc2c(-c3ccc(OC)cc3)nc3nc[nH]n23)cc1, the Potency was inconclusive: 50.1 µM [inhibitor, partial curve].
In the case of O=C(c1ccc(Sc2cccc(Cl)c2)c([N+](=O)[O-])c1)N1CCN(c2ccccn2)CC1, the Potency is reported as inconclusive: 10 µM [inhibitor, full curve].
In the case of COc1ccc(NC(=O)CCC(=O)NCCO)cc1, the Potency is reported as inconclusive: 70.8 µM [inhibitor, single point].
O=C(NC(=S)Nc1ccc(Cc2ccncc2)cc1)c1ccccc1 was tested, and the Potency was inconclusive: 25.1 µM [inhibitor, full curve].
In the case of COc1ccc2[nH]c(=O)c(CN(Cc3nnnn3Cc3ccc(F)cc3)CC3CCCO3)cc2c1 (centres undefined), the Potency is reported as “inactive”.
In the case of N=C1/C(=C/c2cccn2Cc2ccc(Cl)cc2)C(=O)N=C2SC=CN12, the Potency is reported as inconclusive: 89.1 µM [inhibitor, single point].
With Cc1ccc(-c2nc3ccccc3s2)cc1NC(=S)NC(=O)/C=C/c1ccco1 the Potency was inconclusive: 39.8 µM [inhibitor, partial curve].
In the case of COc1cccc(-c2nc3c(c(SCC(=O)Nc4cccc(C)c4C)n2)Cc2c(CO)cnc(C)c2O3)c1, the Potency is reported as inconclusive: 79.4 µM [inhibitor, single point].
